Screen size: about 200,000 compounds; about 4,500 (2.2%) were called active. Inconclusive means that the source gave no clear call. Such entries were picked first, then a sample of the others. Calls follow the shape of the dose curve; as a rule, active = well fitted inhibition curve with a large enough effect; inconclusive = small, poorly fitted or top-dose-only effect, or effect the other way; inactive = flat fitted curve, though single readings scatter. Potencies of inconclusive entries are doubtful fits and often do not repeat.
What follows are molecules tested against Cruzipain (Trypanosoma cruzi) (UniProt P25779) (assay: qHTS Assay for Promiscuous and Specific Inhibitors of Cruzain (without detergent)). Details: purified cruzain, Z-FR-AMC fluorescence, no detergent.
In short: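 Detergent-free condition (0.00005% Triton X-100) in acetate buffer pH 5.5 with DTT. 1.5 nM enzyme and compound were pre-mixed 15 min, then 2 uM Z-FR-AMC substrate added; reaction progress from fluorescence change between first and third reads (60 s).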
Also: nearly all actives have a fitted effect of over 40% in size.
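For max response, negative = inhibition in this document: plate controls were enzyme without inhibitor for no effect and buffer without enzyme for full effect.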
Potency is read from the fitted curve at half-maximal effect; tags tell the direction and shape of the fitted curve.

Chain of UniProt P25779 (P25779 whole entry, looked up): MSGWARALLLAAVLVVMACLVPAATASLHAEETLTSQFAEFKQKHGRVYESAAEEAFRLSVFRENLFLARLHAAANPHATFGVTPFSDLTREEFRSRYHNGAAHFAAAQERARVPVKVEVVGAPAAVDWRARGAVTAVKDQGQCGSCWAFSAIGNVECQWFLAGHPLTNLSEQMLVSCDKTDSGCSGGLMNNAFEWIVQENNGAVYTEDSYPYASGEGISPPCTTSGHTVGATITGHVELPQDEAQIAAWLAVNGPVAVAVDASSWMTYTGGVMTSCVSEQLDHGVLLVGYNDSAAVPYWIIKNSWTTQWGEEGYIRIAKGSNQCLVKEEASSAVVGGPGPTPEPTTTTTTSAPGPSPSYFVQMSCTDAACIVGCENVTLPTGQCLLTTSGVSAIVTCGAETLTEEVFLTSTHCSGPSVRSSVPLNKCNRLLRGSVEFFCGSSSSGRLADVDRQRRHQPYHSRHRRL

Row | Structure (SMILES) | max response, negative = inhibition | Potency
1 | COC(=O)[C@]1(C)CCC[C@]2(C)c3ccc(C(C)C)cc3C(=O)CC12 (stereo partly drawn) | inactive: -1.99% | –
2 | COc1ccc(C)cc1NC(=O)c1ccccc1NS(=O)(=O)c1cccc2cccnc12 | – | inconclusive: 39.8 µM [inhibitor, single point]
3 | NC(=O)CSc1nnc2n(-c3ccccc3)c(=O)c3c4c(sc3n12)CCCCC4 | – | inconclusive: 25.1 µM [activator, single point]
4 | COc1cc2c(-c3ccccc3C)nc3c(c(C)nn3-c3ccccc3)c2cc1OC | inactive: -9.13% | –
5 | CCCN(CCC)C(=O)Cn1c(=O)n(-c2cccc(C(F)(F)F)c2)c(=O)c2c(C)c(C)sc21 | inactive: 4.03% | –
6 | COc1ccc(C2CC(c3ccccc3)=NN2C(=O)COC(=O)c2cccnc2)cc1 (stereo not drawn) | – | active: 15.8 µM
7 | COc1cc(/C=C(\C#N)c2ccccn2)ccc1OCC(=O)Nc1cccc(C(F)(F)F)c1 | – | inconclusive: 20 µM [activator, single point]
8 | CCOc1ccccc1NC(=O)CSc1nc2ccccc2c2nc(CCn3cncc3C)nn12 | inactive: -3.19% | –
9 | O=C(Nc1ccc(-c2noc(-c3cccs3)n2)cc1)c1cccnc1 | – | inconclusive: 39.8 µM [activator, single point]
10 | COc1ccc(CC(=O)Nc2ccc(/C(C)=N/NC(=O)c3cccc([N+](=O)[O-])c3)cc2)cc1 | – | inconclusive: 25.1 µM [inhibitor, single point]
11 | C[C@H](CCC(=O)O)C[C@H](C)C[C@H](C)C(=O)/C=C(\O)[C@H](C)C[C@H](C)C/C=C/[C@@H](C)[C@@H](O)[C@@H](C)[C@@H](O)C[C@@H]1CC[C@@](C)(C2CC[C@@](C)([C@@H](C)O)O2)O1 (stereo partly drawn) | – | inconclusive: 7.94 µM [activator, partial curve]
12 | CSc1ncc(Cl)c(C(=O)Nc2ccccc2Cl)n1 | – | inconclusive: 39.8 µM [inhibitor, single point]
13 | CCOC(=O)CNC(=O)Nc1cc(C(=O)NCc2cccc(F)c2)ccc1N1CCCC1 | – | inconclusive: 39.8 µM [activator, single point]
14 | Cc1nn(C)c(Oc2cccc(Cl)c2)c1C(=O)Nc1ccc(F)cc1F | – | inconclusive: 39.8 µM [activator, single point]
15 | CCOC(=O)c1ccc(NC(=O)CC2S/C(=N/N=C/c3c[nH]c4ccccc34)NC2=O)cc1 (stereo not drawn) | – | inconclusive: 25.1 µM [inhibitor, single point]
16 | COc1ccc(S(=O)(=O)N(Cc2nc(-c3ccc(C)cc3)no2)C2CCCCC2)cc1 | inactive: -10.5% | –
17 | Cn1c(=O)c2cc(S(=O)(=O)N3CCN(c4cccc(C(F)(F)F)c4)CC3)ccc2n(C)c1=O | – | inconclusive: 10 µM [activator, partial curve]
18 | COc1ccc(/C=N/NC(=O)c2ccoc2C)cc1COc1ccc(Cl)cc1 | – | inconclusive: 31.6 µM [inhibitor, single point]
19 | COc1cccc(OC)c1-c1nn2c(-c3cc(-c4ccccc4)n[nH]3)nnc2s1 | – | active: 20 µM
20 | COc1ccc(-c2nnc(-c3cc4ccccc4oc3=O)o2)cc1 | – | active: 15.8 µM
21 | O=C(Cn1c(=O)n(Cc2ccco2)c(=O)c2c3c(sc21)CCCCC3)Nc1ccccc1 | – | inconclusive: 3.98 µM [inhibitor, single point]

Row | Structure (SMILES) | max response, negative = inhibition | Potency
22 | Cn1c(=O)c2c(nc(NC3CCCCC3)n2CC(O)COc2ccccc2)n(C)c1=O (stereo not drawn) | – | inconclusive: 39.8 µM [activator, single point]
23 | COc1ccc(C(=O)Nc2ccc3[nH]c(-c4cccc(OC)c4)cc(=O)c3c2)cc1 | – | inconclusive: 44.7 µM [inhibitor, single point]
24 | O=C(Nc1nc(-c2cc(Cl)sc2Cl)cs1)c1ccccc1 | – | inconclusive: 31.6 µM [inhibitor, single point]
25 | COc1cccc(NC(=O)COC(=O)c2c3c(nc4ccccc24)CCC(C)C3)c1 (stereo not drawn) | – | inconclusive: 31.6 µM [inhibitor, single point]
26 | O=c1c(O)c(-c2cccs2)oc2ccc(Cl)cc12 | – | inconclusive: 39.8 µM [inhibitor, single point]
27 | CCOc1ccc2cc(C3CC(c4ccco4)=NN3S(=O)(=O)c3ccccc3)c(Cl)nc2c1 (stereo not drawn) | – | inconclusive: 39.8 µM [inhibitor, single point]
28 | CSc1ccc(CNCc2c(C(=O)O)c(C)n(Cc3ccc(F)cc3Cl)c2C)cc1 | inactive: 6.02% | –
29 | O=C(Cc1sc(-c2ccccc2)nc1-c1ccccc1)Nc1ccccc1 | – | inconclusive: 25.1 µM [inhibitor, partial curve, poor fit]
30 | Cc1cc2oc(=O)cc(-c3ccccc3)c2c(C)c1-c1ccc(CO)cc1 | – | inconclusive: 28.2 µM [inhibitor, partial curve]
31 | Cc1ccc(Cl)c2sc(N3CCN(C(=O)C4CC4)CC3)nc12 | – | inconclusive: 39.8 µM [activator, single point]
32 | CC(=O)OC1C(=O)[C@@]2(C)C(O)CC3OC[C@]3(OC(C)=O)C2C(OC(=O)c2ccccc2)[C@]2(O)CC(OC(=O)C(O)C(NC(=O)c3ccccc3)c3ccccc3)C(C)=C1C2(C)C (stereo partly drawn) | – | inconclusive: 31.6 µM [activator, single point]
33 | CSc1nsc(/C=C/Nc2ccc(Cl)cc2)c1C#N | – | inconclusive: 31.6 µM [inhibitor, single point]
34 | CCCCCC(=O)/C=C/[C@@H]1[C@@H](C/C=C\CCCC(=O)O)[C@@H](O)C[C@H]1O | inactive: -2.33% | –
35 | COc1ccccc1Nc1cc(C)nc2nc(-c3ccccc3)nn12 | – | inconclusive: 31.6 µM [activator, single point]
36 | COc1ccc(NC(=O)c2cccc(Oc3ccc([N+](=O)[O-])cc3Cl)c2)cc1 | – | inconclusive: 39.8 µM [inhibitor, single point]
37 | O=C1CC(SCc2nc3ccccc3[nH]2)C(=O)N1c1ccc(F)c(Cl)c1 (stereo not drawn) | – | active: 15.8 µM
38 | COc1ccc(NS(=O)(=O)c2cc3[nH]c(=O)c(=O)[nH]c3cc2C)cc1OC | inactive: -11.9% | –
39 | Cc1ccc2c(=O)cc(C(=O)Nc3sc4c(c3C(=O)NCc3ccco3)CCC4)oc2c1C | inactive: -1.69% | –
40 | Cc1cc(C(=O)OC(C(=O)Nc2ccc(C)c(Cl)c2)c2ccccc2)c(C)o1 (stereo not drawn) | – | inconclusive: 25.1 µM [inhibitor, single point]
41 | O=C(Oc1ccc([N+](=O)[O-])cc1)c1cccnc1 | inactive: 9.07% | –
42 | CC1(C)Cc2c(C#N)c(SCC(=O)c3ccccc3)nc(N3CCOCC3)c2CS1 | – | active: 25.1 µM

Row | Structure (SMILES) | max response, negative = inhibition | Potency
43 | COc1cccc(CNC(=O)CSc2ccc(-c3sc(-c4ccccc4)nc3C)nn2)c1 | – | inconclusive: 31.6 µM [activator, single point]
44 | O=C(NC1CCCc2ccccc21)C1CCN(S(=O)(=O)c2cccc3nonc23)CC1 (stereo not drawn) | – | inconclusive: 20 µM [inhibitor, single point]
45 | Cn1c(=O)c2nc(SCC(=O)Nc3cc(Cl)ccc3Cl)n(C)c2n(C)c1=O | inactive: -4.69% | –
46 | COC(=O)[C@@]1(Cc2ccc(OC)cc2)[C@H]2c3cc(C(=O)N4CCCC4)n(CCF)c3C[C@H]2CN1C(=O)c1ccccc1 | – | inconclusive: 25.1 µM [activator, partial curve]
47 | CCn1c(C(=O)N2CCC(C(=O)N3CCN(c4cccc(C)c4C)CC3)CC2)cc2sccc21 | – | inconclusive: 20 µM [activator, partial curve]
48 | Cc1cccc(C)c1NC(=O)Cn1nnc(-c2ccc(N3CCOCC3)cc2)n1 | – | active: 20 µM
49 | Cc1cc(C)cc(-n2c(SCC(=O)N3CCc4ccccc43)nc3c([nH]c4ccccc43)c2=O)c1 | inactive: 8.43% | –
50 | Cc1cccc(-c2nc(SCCCOc3ccccc3Cl)n3[nH]c(=O)cc3n2)c1 | – | active: 15.8 µM
51 | CCOc1ccc(CNC(=O)Cn2c(=O)c3cccn3c3ccc(F)cc32)cc1 | inactive: -4.66% | –
52 | CCSc1nnc(NC(=O)C2CC=CCC2C(=O)O)s1 (stereo not drawn) | inactive: 10.5% | –
53 | Cc1cc(C)cc(NC(=O)CCCc2nc(-c3ccco3)no2)c1 | inactive: 17.8% | –
54 | O=C(COC(=O)CNC(=O)c1cccc([N+](=O)[O-])c1)Nc1ccccc1OC(F)F | – | active: 20 µM
55 | CCCC(c1nnnn1CCOC)N(Cc1cc2cc(C)c(C)cc2[nH]c1=O)CC1CCCO1 (stereo not drawn) | – | inconclusive: 31.6 µM [activator, single point]
56 | O=C(CSc1nnc(COc2ccc(Cl)cc2)o1)N1c2ccccc2CCc2ccccc21 | – | inconclusive: 25.1 µM [inhibitor, single point]
57 | COc1cc(NC(=O)CCc2c(C)nn(-c3ccc(N4CCCCC4)nn3)c2C)cc(OC)c1OC | – | inconclusive: 31.6 µM [activator, single point]
58 | CCOc1ccc(CN(CCc2ccc3c(c2)OCO3)Cc2cc(OC)c(OC)cc2OC)cc1 | inactive: 3.15% | –
59 | CCS(=O)(=O)N1Cc2ccccc2CC1C(=O)Nc1nnc(SCc2ccc(F)cc2)s1 (stereo not drawn) | – | inconclusive: 31.6 µM [inhibitor, single point]
60 | CCOc1ccc(NC(=O)CC2C(=O)N(c3cccc(C)c3)C(=O)N2Cc2cccs2)cc1 (stereo not drawn) | inactive: -1.4% | –
61 | Cn1c(=O)cc(SCC(=O)N2CCN(c3ccccc3F)CC2)c2ccccc21 | – | inconclusive: 39.8 µM [activator, single point]
62 | COc1ccc(-c2csc(NC(=O)c3ccc(OCC(=O)N4CCOCC4)c(OC)c3)n2)cc1OC | – | inconclusive: 12.6 µM [activator, partial curve]
63 | C[C@H]1CC[C@@H]2[C@@H](C)[C@H]3[C@H](C[C@H]4[C@@H]5CC=C6C[C@@H](O[C@@H]7O[C@H](CO)[C@H](O)[C@H](O[C@@H]8O[C@H](CO)[C@@H](O)[C@H](O)[C@H]8O)[C@H]7O[C@@H]7O[C@@H](C)[C@H](O)[C@@H](O)[C@H]7O)CC[C@]6(C)[C@H]5CC[C@]34C)N2C1 | – | inconclusive: 39.8 µM [activator, single point]
